# Source: PubChem BioAssay AID686971 (National Center for Advancing Translational Sciences (NCATS), 2013)
# Among all 360,000 compounds or so, about 7,500 (2.1%) were called active. The shares of active, inactive and inconclusive entries below differ from those in the screen. The call rests on the fitted dose curve; in most records, active means well fitted cell-killing curve with a large enough effect; inconclusive means small, poorly fitted or top-dose-only effect, or effect the other way, or another doubt; inactive means no such curve, though single readings can be large or run the other way. No potency is given beside an inconclusive call; the fits are too rough.
# Experiment: qHTS for induction of synthetic lethality in tumor cells producing 2HG: qHTS for the HT-1080-IDH1KD cell line;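 on activity, negative = toxicity: 0% = DMSO wells and -100% = cell-free medium wells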
# Details: HT-1080 IDH1 knockdown viability, ATP luminescence, 48 h; activity, negative = toxicity: at 46.1 µM (top of the series) unless noted
# How it was run: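 Using the IDH1-knockdown HT-1080 line run in the same batch and compound series as the NT line, viability after 48 h at 37 °C was determined by CellTiter-Glo luminescence and expressed as % activity.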
# Potency means the concentration at half of the fitted maximal effect; tags describe the fitted curve by direction and shape.
SMILES,"activity, negative = toxicity",Potency
CC(C)CN(C(=O)COc1ccccc1C(=O)NCc1ccccc1)C1CCS(=O)(=O)C1 (stereo not given),inactive: -1.16%,–
COc1ccc(C(=O)/C=C/Nc2ccc(C)cn2)cc1OC,–,"inconclusive [cytotoxic, single point]"
CCN(CC)c1ccc(S(=O)(=O)N2CCOCC2)cc1NC(=O)CN1CCc2ccccc2C1,–,"inconclusive [cytotoxic, single point]"
CC(C)c1ccccc1OCC(O)CN(CC(O)COc1cccc2ccccc12)C(C)C (stereo not given),–,active: 25.9 µM
COc1ccccc1C(=O)Nc1ccc(S(=O)(=O)N2CCCCC2c2cccnc2)cc1 (stereo not given),–,"inconclusive [cytotoxic, single point]"
O=c1[nH]c(=O)n(Cc2ccccc2)c2nc(-c3ccco3)cc(C(F)(F)F)c12,–,"inconclusive [cytotoxic, single point]"
O=C(Nc1ccccc1)Nc1n[nH]c2nnc(-c3ccccc3)c(-c3ccccc3)c12,–,"inconclusive [cytotoxic, single point]"
O=C(NCc1ccccc1)c1cccc2c(-c3ccc(F)c(F)c3)coc12,–,"inconclusive [cytotoxic, single point]"
CCCn1c(SCC(=O)NC2CCCCC2C)n[nH]c1=O (stereo not given),inactive: 11.4%,–
Cc1ccc(Sc2c(C#N)c(-c3ccccc3)nn2C)cc1,–,"inconclusive [cytotoxic, single point]"
CCC(CCNC(=O)c1ccccc1)(CCNC(=O)c1ccccc1)[N+](=O)[O-],inactive: 9.37%,–
COc1ccc(C#Cc2c(-c3ccccc3)n(-c3ccccc3)c3ccc(CO)cc23)cc1,–,"inconclusive [cytotoxic, single point]"
O=S(=O)(Nc1cc(C(F)(F)F)ccc1N1CCOCC1)c1ccc2ccccc2c1,–,"inconclusive [cytotoxic, single point]"
O=C(CSCc1ccc(Cl)cc1)Nc1cccc(C(=O)Nc2ccccc2C(=O)O)c1,–,"inconclusive [cytotoxic, single point]"
Cc1ccc(-c2cn(-c3ccc(OC(F)F)cc3)c3[n+]2CCCCC3)cc1,inactive: -25.5%,–
COc1ccc(NC(=O)N(Cc2cc3ccc(OC)cc3[nH]c2=O)CC2CCCO2)cc1 (stereo not given),–,"inconclusive [cytotoxic, single point]"
C=CCOc1ccc(/C=C2/C(=O)ON=C2C)cc1OC,inactive: -9.2%,–
O=C(Nc1cc(S(=O)(=O)N2CCCC2)ccc1OCC(F)(F)F)c1ccncc1,inactive: 7.7%,–
O=C(CCN1CCCC1Cc1ccccc1)c1ccc2c(c1)OCCO2 (stereo not given),–,"inconclusive [cytotoxic, single point]"
CN(C)c1ccc(/C=C(\C#N)c2ccccn2)cc1,–,"inconclusive [cytotoxic, partial curve]"
Cc1cccc(/C(N)=N/OC(=O)c2ccoc2C)c1,–,active: 16.4 µM
CC1CC1C(=O)N(C)CC(=O)Nc1cccc(F)c1 (stereo not given),inactive: 15.5%,–
CC(C)(C)c1csc(NC(=O)CCS(=O)(=O)c2ccc(F)cc2)n1,–,"inconclusive [cytotoxic, single point]"

SMILES,"activity, negative = toxicity",Potency
Cc1cccc(N(C)S(=O)(=O)c2c[nH]c3ccc([N+](=O)[O-])cc23)c1,–,"inconclusive [cytotoxic, single point]"
CCCCC(=O)NC(c1ccccc1Cl)c1ccc2cccnc2c1O (stereo not given),–,"inconclusive [cytotoxic, full curve]"
COc1ccc(S(=O)(=O)N2CCCc3ccccc32)cc1OC,–,"inconclusive [cytotoxic, single point]"
COc1ccc(F)cc1-c1cc(C(=O)Nc2ccc(C)c(NS(C)(=O)=O)c2)[nH]n1,–,"inconclusive [cytotoxic, single point]"
CCC(C)Sc1ccc(-c2nc3ccccn3c2NCc2ccccc2)cc1OC (stereo not given),–,"inconclusive [cytotoxic, single point]"
CN1CCc2c(OCC(=O)N3N=C(c4cccs4)CC3c3ccc(F)cc3)cccc2C1=O (stereo not given),–,"inconclusive [cytotoxic, single point]"
Clc1cccc(-c2noc3ncnc(Nc4ccc5c(c4)OCO5)c23)c1,inactive: 0.387%,–
Cn1c(=O)n(CCc2ccccc2)c(=O)c2c1nc1n2CCCN1CCc1ccccc1,–,active: 29.1 µM
CC(C)OC(=O)CN1C(=O)S/C(=C/c2ccc(N3CCCCC3)o2)C1=O,–,active: 11.2 µM
Clc1ccc(CSc2nncn2-c2ccc3c(c2)OCCO3)cc1,–,active: 5.17 µM
CCN=c1scc(-c2ccccc2)n1/N=C/c1ccccn1,–,"inconclusive [cytotoxic, partial curve, poor fit]"
CCOC(=O)[C@]12CCC=C1N(CCC1=CCCCC1)C(=O)[C@H](CC(=O)N1CCC(c3ccccc3)CC1)C2,–,"inconclusive [cytotoxic, single point]"
COC(=O)C1(C(=O)OC)c2ccccc2N(S(=O)(=O)c2ccc(C)cc2)C1CC(C)=O (stereo not given),–,"inconclusive [cytotoxic, single point]"
COc1ccc(S(=O)(=O)Cc2ccc(C(=O)NCc3ccc(C)cc3)o2)cc1,inactive: -11.6%,–
CC(C)c1cc(C(N)=O)c(NC(=O)c2cccc(COc3ccc(Br)cc3)c2)s1,–,"inconclusive [cytotoxic, single point]"
Cc1noc(C)c1CSc1nnc2sc3ccccc3n12,inactive: 5.05%,–
CCn1c(=O)n(-c2ccc(Cl)cc2)c(=O)c2c3c(sc21)COC(C)(C)C3,inactive: -0.396%,–
S=c1[nH]cc(-c2ccccc2)n1-c1ccccc1,inactive: 1.59%,–
CCCN1CCc2c(sc(NC(=O)c3ccc(S(=O)(=O)N4CCN(C(=O)OCC)CC4)cc3)c2C(N)=O)C1,–,active: 6.51 µM
O=C(C=Cc1cccc(O)c1)c1ccccc1O,–,"inconclusive [cytotoxic, single point]"
OC(COc1ccc(C2C=CCC2)cc1)CN1CCCCC1 (stereo not given),–,"inconclusive [cytotoxic, single point]"
Cc1ccc(C(=O)N/N=C/c2ccc(-c3cccc(C(F)(F)F)c3)o2)cn1,–,active: 2.06 µM
